# Measured values reported in article PMC4336329 (PLoS ONE, 2015).
# Hit rate of the full screen: of about 310,000 compounds, about 14,000 (4.5%) showed an effect of 50% or more. Effects have a minus sign here. Some of the results follow.
# Molecular target: human ether-à-go-go-related gene (hERG) potassium channel (human, UniProt Q12809)
# Experiment: primary screen, population patch clamp on CHO cells stably expressing hERG
# 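Also: peak tail current of the secondary pulse compared with the same well before compound.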
# human ether-à-go-go-related gene (hERG) potassium channel, sequence (Q12809 whole entry, looked up): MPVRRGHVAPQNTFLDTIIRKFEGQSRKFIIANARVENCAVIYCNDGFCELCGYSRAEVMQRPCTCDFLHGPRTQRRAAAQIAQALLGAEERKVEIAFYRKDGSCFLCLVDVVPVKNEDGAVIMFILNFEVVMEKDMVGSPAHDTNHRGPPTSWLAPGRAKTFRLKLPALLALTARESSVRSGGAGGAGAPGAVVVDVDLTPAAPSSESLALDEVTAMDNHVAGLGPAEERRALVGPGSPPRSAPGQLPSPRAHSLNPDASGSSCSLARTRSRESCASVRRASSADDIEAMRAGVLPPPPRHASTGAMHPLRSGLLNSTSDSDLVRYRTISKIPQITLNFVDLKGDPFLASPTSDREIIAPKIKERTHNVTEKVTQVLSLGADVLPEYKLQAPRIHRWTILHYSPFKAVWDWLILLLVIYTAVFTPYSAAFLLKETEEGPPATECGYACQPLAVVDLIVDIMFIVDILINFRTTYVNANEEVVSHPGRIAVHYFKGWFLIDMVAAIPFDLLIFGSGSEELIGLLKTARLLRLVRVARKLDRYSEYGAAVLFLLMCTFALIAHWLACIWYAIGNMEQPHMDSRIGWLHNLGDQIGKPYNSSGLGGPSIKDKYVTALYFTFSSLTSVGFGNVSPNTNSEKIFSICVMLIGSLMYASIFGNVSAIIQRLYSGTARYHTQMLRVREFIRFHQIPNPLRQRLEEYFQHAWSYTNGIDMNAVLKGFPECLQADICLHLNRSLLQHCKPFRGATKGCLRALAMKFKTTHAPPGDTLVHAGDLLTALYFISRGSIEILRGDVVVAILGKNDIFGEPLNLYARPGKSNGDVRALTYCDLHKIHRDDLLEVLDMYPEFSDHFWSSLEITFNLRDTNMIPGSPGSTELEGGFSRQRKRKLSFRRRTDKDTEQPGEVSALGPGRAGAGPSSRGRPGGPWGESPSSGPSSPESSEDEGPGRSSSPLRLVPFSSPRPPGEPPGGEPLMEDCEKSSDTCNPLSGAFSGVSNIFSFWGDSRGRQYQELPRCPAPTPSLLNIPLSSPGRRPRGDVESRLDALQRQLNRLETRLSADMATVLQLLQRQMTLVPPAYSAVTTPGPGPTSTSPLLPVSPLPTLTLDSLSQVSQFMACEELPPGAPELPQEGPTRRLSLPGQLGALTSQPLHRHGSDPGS
row,SMILES,"hERG current change (%, negative = inhibition) at 10uM [%]"
1,Cc1c(C(=O)Nc2ccc(S(=O)(=O)N(C)C3CCN(C)CC3)cc2)oc2c(Cl)cccc12,-16.9
2,CCN(Cc1ccccc1)C(=S)NC(=O)c1ccccc1Br,-3.74
3,COc1ccc(S(=O)(=O)n2nc(OC(=O)c3ccccc3)cc2N)cc1,12.1
4,COC(=O)c1c(NC(=O)CN2C(=O)NC3(CCC(C(C)(C)C)CC3)C2=O)sc2c1CCCCC2 (stereo not shown),18.9
5,O=C(O)CCSCCC(=O)O,17.9
6,Cc1c(NS(=O)(=O)c2ccc(NC(=O)CCC(=O)O)cc2)c(=O)n(-c2ccccc2)n1C,20.9
7,COc1ccc(N2CCN(C(=O)c3ccc(COc4ccc5c(C)cc(=O)oc5c4)cc3)CC2)cc1,-5.04
8,CCOC(=O)c1ccc(CNC(=O)Cn2nnc(-c3ccccc3)n2)o1,1.92
9,CC(C(=O)NN)n1nnc(N2CCOCC2)n1 (stereo not shown),10.3
10,CC(=O)Oc1cccc(N2C(=O)C3C4C=CC(C4)C3C2=O)c1 (stereo not shown),0.674
11,Nc1cc(OCC(F)(F)F)cc(OCC(F)(F)F)c1,9.19
12,O=C(CCOc1ccccc1)OCC(=O)c1cc2ccccc2o1,-10.3
13,CCn1c(SCC(=O)NCc2ccco2)nnc1C1CCCC1,13
14,O=C(COC(=O)c1ccc(O)cc1)NC(=O)NCc1ccccc1,-7.67
15,C=CCn1c(SCc2ccc(C#N)cc2)nnc1-c1ccc(C)cc1,-71.3
16,COC(=O)c1ccc(COC(=O)c2cnccn2)cc1,-2.76
17,CC1(C)Cc2nc3sc4c(SCC(=O)NCc5ccccc5)ncnc4c3cc2CO1,-27.5
18,O=C(Nc1ccnc(-c2cccnc2)n1)c1ccccc1Cl,0.772
19,COc1cccc(NC(=O)CCN2C(=O)c3cccc([N+](=O)[O-])c3C2=O)c1,-3.85
20,O=S(=O)(c1ccc(F)cc1)n1ccc2cccnc21,-0.0309

row,SMILES,"hERG current change (%, negative = inhibition) at 10uM [%]"
1,Cc1ccc(C(=O)Nc2cc(S(=O)(=O)N3CCOCC3)ccc2N2CCCC2)cc1,-8.42
2,Cc1ccc(C(=O)C2=C(O)C(=O)N(c3ncccn3)C2c2ccc(Br)cc2)o1 (stereo not shown),13.6
3,COc1ccc(NC(=O)CSc2cccc3cccnc23)c(OC)c1,-7.79
4,CCc1nnc(NC(=O)c2nc(S(=O)(=O)Cc3ccc(C)cc3)ncc2Cl)s1,16.1
5,Cc1nc2ccccc2n1S(=O)(=O)c1ccc(Br)cc1,-2.34
6,Fc1ccccc1CN1CCCC(NC2CCC2)C1 (stereo not shown),10.4
7,CC(CNC(=O)COc1ccccc1)OC(=O)Nc1cccc(Cl)c1 (stereo not shown),-19
8,COc1ccccc1CNS(=O)(=O)c1ccc2[nH]cc(C(=O)O)c(=O)c2c1,20.8
9,CC(C)C1OC(c2cccc(NC(=O)c3cccs3)c2)OCC1(C)C (stereo not shown),-7.71
10,Cc1ccc(-c2cc(C(F)F)n3ncc(C(=O)N4CCN(c5cccc(C)c5C)CC4)c3n2)cc1,2.05
11,O=C(Nc1cnccn1)Nc1ccccc1Cl,2.58
12,O=C(NCC1CCCCC1)c1cccc([N+](=O)[O-])c1,9.98
13,CC(=O)N1c2ccc(S(=O)(=O)NCCC(=O)NCCc3ccc(C)cc3)cc2CC1C (stereo not shown),-8.29
14,COc1ccc(C)cc1S(=O)(=O)N(C)CC(=O)N1CCCCC1,8.01
15,O=C(COC(=O)c1cnccn1)Nc1ccc2c(c1)OCO2,7.23
16,O=S(=O)(c1cccs1)n1cccn1,3.83
17,COc1ccc(C(=O)OCC(=O)NC(=O)NCc2ccccc2)cc1[N+](=O)[O-],-1.9
18,CCOc1ccccc1CNCCOC.Cl,1.1
19,CCOC(=O)c1cc(-c2ccc(OC)cc2)n(CCC(=O)NCCN2CCC(C)CC2)c1C,-52.4
20,COc1cc(/C=N/NC(=O)C(C)Nc2n[nH]c(=O)[nH]c2=O)cc(OC)c1O (stereo not shown),15

row,SMILES,"hERG current change (%, negative = inhibition) at 10uM [%]"
1,COc1cc(/C=C2/SC(=S)N(CC(=O)Nc3cccnc3)C2=O)cc(OC)c1OC,7.93
2,CCN(CC)S(=O)(=O)c1ccc(NC(=O)c2ccc(OCC3CCCO3)cc2)cc1 (stereo not shown),-7.56
3,COc1ccccc1N=NC1C(=O)N(C(N)=S)N=C1C (stereo not shown),14.1
4,Cc1ccc(CNCCc2ccccc2F)cc1.Cl,-31.8
5,Cc1ccn2cc(CSc3ccccc3)nc2c1,-3.72
6,CCOc1ccc(C(=O)N(Cc2ccc(OC)cc2)Cc2cc3cc(OC)ccc3[nH]c2=O)cc1,-6.99
7,Cc1cccc(OCC(=O)N/N=C/c2ccc(N(C)C)cc2)c1,-6.97
8,Nn1cc(-c2ccccc2)nc1SCC(=O)N1CCN(S(=O)(=O)c2ccc3ccccc3c2)CC1,-17.2
9,O=C(NCC(=O)N1CCCC1)c1ccccc1F,13.8
10,CCC(C)Cn1c(C(C)C)nc2ccccc21 (stereo not shown),-11.3
11,CCOc1c(Cl)cc(CNC(C)(C)CC(C)(C)C)cc1OC.Cl,-13.2
12,O=C(NC(=S)NCCCN1CCOCC1)c1cccc2ccccc12,12.6
13,COc1ccc(C(=O)Nc2ccc(S(=O)(=O)Nc3cnc4ccccc4n3)cc2)cc1,6.26
14,CC(C)n1cc(CN2CCC(C(=O)Nc3ccc(Oc4ccccc4F)cc3)CC2)cn1,-76.1
15,COc1ccc(-c2nnc(SCC(C)C)o2)cc1,-24.5
16,COc1ccc(N2CCC(CNC(=S)Nc3cccc(OC)c3)C2)cc1 (stereo not shown),-2.4
17,c1ccc2sc(NC3=NCN(C4CCCCC4)CN3)nc2c1,-11
18,CNc1nc(Nc2ccc(Br)cc2)nc(N)c1[N+](=O)[O-],1.45
